Results as given in PMC4274898.
These are yes or no findings as the source states them, for the method shown. Some binding calls cover weakened binding; strength is not graded here.

Assays:
Assay in all cases: two-hybrid; S. cerevisiae AH109 co-transformed with pGBKT7-ARF (bait) and pGADT7-Aux/IAA (prey); growth on SD/-Ade-His-Leu-Trp against SD/-Leu/-Trp; at least 10 independent colonies; serial dilutions for strength
[1] = molecular target: T1, ARF5 (Arabidopsis thaliana) (UniProt P93024)
T1 sequence: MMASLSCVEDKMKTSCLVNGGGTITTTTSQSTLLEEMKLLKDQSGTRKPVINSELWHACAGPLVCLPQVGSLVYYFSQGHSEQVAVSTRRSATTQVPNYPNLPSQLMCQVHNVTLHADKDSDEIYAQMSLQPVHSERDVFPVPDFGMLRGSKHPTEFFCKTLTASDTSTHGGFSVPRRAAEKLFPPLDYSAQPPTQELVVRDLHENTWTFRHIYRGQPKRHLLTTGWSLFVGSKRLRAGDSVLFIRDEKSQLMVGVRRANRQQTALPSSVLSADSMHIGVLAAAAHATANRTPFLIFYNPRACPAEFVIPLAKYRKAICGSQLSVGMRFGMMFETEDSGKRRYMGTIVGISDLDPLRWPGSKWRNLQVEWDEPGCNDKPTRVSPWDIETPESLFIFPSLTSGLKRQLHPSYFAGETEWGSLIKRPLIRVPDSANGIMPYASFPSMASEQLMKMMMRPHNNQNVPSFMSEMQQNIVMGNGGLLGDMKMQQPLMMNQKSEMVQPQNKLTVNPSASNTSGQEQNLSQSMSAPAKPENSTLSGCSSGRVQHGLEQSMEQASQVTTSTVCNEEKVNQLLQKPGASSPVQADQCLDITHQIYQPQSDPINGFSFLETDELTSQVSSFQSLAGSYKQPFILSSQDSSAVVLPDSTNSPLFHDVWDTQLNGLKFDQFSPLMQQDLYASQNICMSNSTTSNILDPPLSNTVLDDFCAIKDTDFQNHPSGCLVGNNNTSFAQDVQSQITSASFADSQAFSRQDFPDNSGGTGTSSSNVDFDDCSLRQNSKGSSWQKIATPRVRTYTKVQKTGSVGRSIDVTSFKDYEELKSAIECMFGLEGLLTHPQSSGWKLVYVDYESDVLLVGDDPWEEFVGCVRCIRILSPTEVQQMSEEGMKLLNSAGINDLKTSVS

[2] = molecular target: T2, ARF19 (Arabidopsis thaliana) (UniProt Q8RYC8)
T2 sequence: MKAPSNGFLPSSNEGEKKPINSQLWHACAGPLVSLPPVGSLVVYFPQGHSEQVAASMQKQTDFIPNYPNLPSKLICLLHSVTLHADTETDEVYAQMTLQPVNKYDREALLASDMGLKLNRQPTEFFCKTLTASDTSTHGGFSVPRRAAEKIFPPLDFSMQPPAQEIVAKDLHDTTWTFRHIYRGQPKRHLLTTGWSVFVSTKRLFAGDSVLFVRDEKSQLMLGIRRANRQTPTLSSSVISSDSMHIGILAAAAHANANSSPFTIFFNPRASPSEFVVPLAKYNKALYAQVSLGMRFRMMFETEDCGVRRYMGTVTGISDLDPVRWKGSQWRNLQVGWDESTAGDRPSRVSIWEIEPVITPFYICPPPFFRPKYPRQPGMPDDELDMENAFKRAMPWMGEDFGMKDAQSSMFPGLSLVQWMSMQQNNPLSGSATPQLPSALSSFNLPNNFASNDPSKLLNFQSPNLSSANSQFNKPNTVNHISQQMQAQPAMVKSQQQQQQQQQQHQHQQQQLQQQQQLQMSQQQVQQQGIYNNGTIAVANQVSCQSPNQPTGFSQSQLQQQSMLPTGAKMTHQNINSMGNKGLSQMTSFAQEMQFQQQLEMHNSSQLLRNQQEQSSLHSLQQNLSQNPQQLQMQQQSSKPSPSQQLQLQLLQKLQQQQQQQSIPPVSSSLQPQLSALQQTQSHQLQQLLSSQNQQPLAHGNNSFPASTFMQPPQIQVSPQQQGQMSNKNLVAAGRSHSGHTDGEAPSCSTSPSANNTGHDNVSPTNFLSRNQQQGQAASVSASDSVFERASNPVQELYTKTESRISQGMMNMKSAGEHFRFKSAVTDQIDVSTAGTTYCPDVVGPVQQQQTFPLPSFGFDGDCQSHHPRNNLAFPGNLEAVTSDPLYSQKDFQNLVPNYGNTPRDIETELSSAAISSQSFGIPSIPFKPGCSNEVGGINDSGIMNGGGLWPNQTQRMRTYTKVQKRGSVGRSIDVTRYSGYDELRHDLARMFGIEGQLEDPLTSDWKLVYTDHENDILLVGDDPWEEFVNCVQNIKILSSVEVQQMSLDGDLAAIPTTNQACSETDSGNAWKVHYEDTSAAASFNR

[3] = molecular target: T3, ARF8 (Arabidopsis thaliana) (UniProt Q9FGV1)
T3 sequence: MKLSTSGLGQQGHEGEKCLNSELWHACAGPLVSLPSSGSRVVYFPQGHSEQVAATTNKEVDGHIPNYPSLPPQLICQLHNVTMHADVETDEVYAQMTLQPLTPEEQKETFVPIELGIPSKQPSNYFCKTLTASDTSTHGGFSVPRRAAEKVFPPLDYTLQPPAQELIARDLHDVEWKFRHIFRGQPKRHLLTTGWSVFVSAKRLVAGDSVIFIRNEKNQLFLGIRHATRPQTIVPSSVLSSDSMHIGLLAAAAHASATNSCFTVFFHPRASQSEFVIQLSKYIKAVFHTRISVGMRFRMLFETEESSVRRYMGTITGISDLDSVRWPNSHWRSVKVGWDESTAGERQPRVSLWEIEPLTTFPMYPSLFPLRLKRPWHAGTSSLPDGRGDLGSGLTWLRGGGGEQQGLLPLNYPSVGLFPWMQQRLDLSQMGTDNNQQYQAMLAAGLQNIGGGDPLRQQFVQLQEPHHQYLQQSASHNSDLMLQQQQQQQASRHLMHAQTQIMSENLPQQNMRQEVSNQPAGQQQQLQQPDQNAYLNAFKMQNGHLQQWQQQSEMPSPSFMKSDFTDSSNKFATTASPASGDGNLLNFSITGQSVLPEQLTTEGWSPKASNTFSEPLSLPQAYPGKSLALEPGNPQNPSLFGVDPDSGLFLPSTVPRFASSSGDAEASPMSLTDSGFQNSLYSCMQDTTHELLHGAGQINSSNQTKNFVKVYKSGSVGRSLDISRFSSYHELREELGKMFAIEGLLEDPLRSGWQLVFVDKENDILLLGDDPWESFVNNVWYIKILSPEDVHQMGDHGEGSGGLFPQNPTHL

Measured: binding

B1: Aux/IAA20 (protein, UniProt O24410 1-175)
chain: MGRGRSSSSSSIESSSKSNPFGASSSTRNLSTDLRLGLSFGTSSGTQYFNGGYGYSVAAPAVEDAEYVAAVEEEEENECNSVGSFYVKVNMEGVPIGRKIDLMSLNGYRDLIRTLDFMFNASILWAEEEDMCNEKSHVLTYADKEGDWMMVGDVPWEMFLSTVRRLKISRANYHY
binds: all assays above

B2: Aux/IAA19 (protein, UniProt O24409 1-197)
chain: MEKEGLGLEITELRLGLPGRDVAEKMMKKRAFTEMNMTSSGSNSDQCESGVVSSGGDAEKVNDSPAAKSQVVGWPPVCSYRKKNSCKEASTTKVGLGYVKVSMDGVPYLRKMDLGSSQGYDDLAFALDKLFGFRGIGVALKDGDNCEYVTIYEDKDGDWMLAGDVPWGMFLESCKRLRIMKRSDATGFGLQPRGVDE
binds: all assays above

B3: Aux/IAA15 (protein, UniProt Q9C966 1-179)
chain: MSPEEYVRVWPDSGDLGGTELTLALPGTPTNASEGPKKFGNKRRFLETVDLKLGEAHENNYISSMVTNDQLVGWPPVATARKTVRRKYVKVALDGAAYLRKVDLGMYDCYGQLFTALENMFQGIITICRVTELERKGEFVATYEDKDGDLMLVGDVPWMMFVESCKRMRLMKTGDAIGL
binds: all assays above

B4: Aux/IAA18 (protein, UniProt O24408 1-267)
chain: MEGYSRNGEISPKLLDLMIPQERRNWFHDEKNSVFKTEEKKLELKLGPPGEEDDDESMIRHMKKEPKDKSILSLAGKYFSPSSTKTTSHKRTAPGPVVGWPPVRSFRKNLASGSSSKLGNDSTTSNGVTLKNQKCDAAAKTTEPKRQGGMFVKINMYGVPIGRKVDLSAHNSYEQLSFTVDKLFRGLLAAQRDFPSSIEDEKPITGLLDGNGEYTLTYEDNEGDKMLVGDVPWQMFVSSVKRLRVIKTSEISSALTYGNGKQEKMRR
binds: all assays above

B5: Aux/IAA2 (protein, UniProt P49678 1-174)
chain: MAYEKVNELNLKDTELCLGLPGRTEKIKEEQEVSCVKSNNKRLFEETRDEEESTPPTKTQIVGWPPVRSSRKNNNSVSYVKVSMDGAPYLRKIDLKTYKNYPELLKALENMFKVMIGEYCEREGYKGSGFVPTYEDKDGDWMLVGDVPWDMFSSSCKRLRIMKGSDAPALDSSL
binds: all assays above

B6: Aux/IAA27 (protein, UniProt Q9ZSY8 1-305)
chain: MSVSVAAEHDYIGLSEFPTMEATTMSDKTKTRDNNNGLNFKATELRLGLPGSESPERVDSRFLALNKSSCPVSGAKRVFSDAINDSNKWVFSPGSTTATGDVGSGSGPRTSVVKDGKSTTFTKPAVPVKEKKSSATAPASKAQVVGWPPIRSFRKNSMASSQSQKPGNNSETEEAEAKSGPEQPCLYVKVSMEGAPYLRKIDLKTYKSYLELSSALEKMFSCFTIGQFGSHGGCGRDGLNESRLTDLLRGSEYVVTYEDKDSDWMLVGDVPWEMFICSCKKLRIMKSSEAIGLAPRVMEKCRSRN
binds: all assays above

B7: Aux/IAA26 (protein, UniProt Q8LAL2 1-269)
chain: MEGCPRNREIGPKLLDLIPQGRKWYQEDKNNTDQEKKLELRLGPPGGDEEDHSAIKKKNTEIRNIKKETEDKSFHCFNGNHFSPSNKTTSVPHISQKRTAPGPVVGWPPVRSFRKNLASTSSSKLGNESSHGGQINKSDDGEKQVETKKEGMFVKINMDGVPIGRKVDLNAYNSYEQLSFVVDKLFRGLLAAQRDISDGQGEEKPIIGLLDGKGEFTLTYEDNEGDKMLVGDVPWQMFVSSVKRLRVIKSSEISSALTFGCSKQEKMMH
binds: all assays above

B8: Aux/IAA28 (protein, UniProt Q9XFM0 1-175)
chain: MEEEKRLELRLAPPCHQFTSNNNINGSKQKSSTKETSFLSNNRVEVAPVVGWPPVRSSRRNLTAQLKEEMKKKESDEEKELYVKINMEGVPIGRKVNLSAYNNYQQLSHAVDQLFSKKDSWDLNRQYTLVYEDTEGDKVLVGDVPWEMFVSTVKRLHVLKTSHAFSLSPRKHGKE
binds: all assays above

B9: Aux/IAA16 (protein, UniProt O24407 1-236)
chain: MINFEATELRLGLPGGNHGGEMAGKNNGKRGFSETVDLKLNLSSTAMDSVSKVDLENMKEKVVKPPAKAQVVGWPPVRSFRKNVMSGQKPTTGDATEGNDKTSGSSGATSSASACATVAYVKVSMDGAPYLRKIDLKLYKTYQDLSNALSKMFSSFTIGNYGPQGMKDFMNESKLIDLLNGSDYVPTYEDKDGDWMLVGDVPWEMFVDSCKRIRIMKGSEAIGLAPRALEKCKNRS
binds: all assays above
